Hit rate of the full screen: of about 420,000 compounds, about 64,000 (15%) were called active. The shares of active, inactive and inconclusive entries below differ from those in the screen. Calls follow the shape of the dose curve; as a rule, active = well fitted inhibition curve with a large enough effect; inconclusive = small, poorly fitted or top-dose-only effect; inactive = flat fitted curve, though single readings scatter. No potency is given beside an inconclusive call; the fits are too rough.
experiment: qHTS for Inhibitors of human tyrosyl-DNA phosphodiesterase 1 (TDP1): qHTS in cells in absence of CPT; details: DT40 Tdp1-/- hTDP1 cells, no CPT, ATP luminescence, 48 h; activity change, negative = growth inhibition: at 46.2 µM (top of the series) unless noted; also: nearly all actives have a fitted effect of over 55% in size
In short: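 Cells were dispensed at 400 per well, compounds added by pin tool, plates incubated ≥48 hr at 37 °C, then CellTiter-Glo added for 30 min at room temperature before luminescence reading. Line: DT40 Tdp1-/- complemented with hTDP1; camptothecin omitted.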
% is scaled to controls: 0 for no effect and ±100 for the full control effect; potency is read from the fitted curve at half-maximal effect; tags tell the direction and shape of the fitted curve.

| SMILES | Potency | activity change, negative = growth inhibition |
| --- | --- | --- |
| COc1ccccc1CC(=O)N1CCCc2cc(C)ccc21 | inconclusive [inhibitor, single point] | – |
| COc1cc(-c2nc(SCC(=O)Nc3ccc4c(c3)OCO4)c(-c3ccccc3)[nH]2)cc(OC)c1OC | active: 16.4 µM | – |
| O=C1/C(=C/c2cccc(Br)c2)SC(=S)N1CCC(=O)N(CCO)c1ccccc1 | inconclusive [inhibitor, single point] | – |
| CC(=O)c1ccc(OC2(C)CCN(Cc3cc4ccccc4[nH]3)C2)cc1 (stereo not drawn) | active: 8.2 µM | – |
| O=C1CN(C(=O)COC(=O)CCS(=O)(=O)c2ccccc2)c2ccccc2N1 | – | inconclusive: -30.3% [inhibitor] |
| S=C(NCC1CCCO1)c1ccc(Br)cc1 (stereo not drawn) | inconclusive [inhibitor, single point] | – |
| CN(CC(=O)Nc1ccc(Cl)cc1)S(=O)(=O)c1cccc2cccnc12 | inconclusive [inhibitor, single point] | – |
| Cn1c(CC(=O)NNC(=O)c2ccc(F)cc2Cl)nc2ccccc21 | inconclusive [inhibitor, single point] | – |
| Cc1nn(-c2ccccc2)c(C)c1/C=N/NC(=O)CSc1nc2ccccc2c(=O)n1-c1ccccc1 | active: 18.4 µM | – |
| O=S(=O)(c1ccc2ccccc2c1)N1CCN=C1SCc1cccnc1 | inconclusive [inhibitor, single point] | – |
| COc1cc(C(C)=O)ccc1OCC(=O)N(CCC1=CCCCC1)c1c(N)n(Cc2ccccc2)c(=O)[nH]c1=O | inconclusive [inhibitor, single point] | – |
| Cc1[nH]c2ccc(C(=O)O)cc2c1C | inactive | – |
| COc1cc(NC(=O)c2ccc(NC3=NC4CS(=O)(=O)CC4S3)cc2)cc(OC)c1OC (stereo not drawn) | inactive | – |
| Cc1cc2n(n1)C(c1sccc1C)Nc1c(C)cccc1-2 (stereo not drawn) | inconclusive [inhibitor, single point] | – |
| O=C(N/N=C/c1cn[nH]c1-c1ccc(Cl)cc1)c1ccc([N+](=O)[O-])cc1 | inactive | – |
| Cc1ccc(-c2nnn(CC(=O)N(c3cccc(F)c3)C(C(=O)NC3CCCC3)c3ccncc3)n2)o1 (stereo not drawn) | inactive | – |
| c1ccc(CN2CCC(N=C3NN=C(c4ccc5c(c4)OCCO5)CS3)CC2)cc1 | inconclusive [inhibitor, partial curve] | – |
| Cc1ccc(S(=O)(=O)NC(=O)NCC2CCN(S(=O)(=O)c3ccccc3)CC2)cc1 | inactive | – |
| Brc1ccc(CSc2nccn2-c2ccccc2)cc1 | inconclusive [inhibitor, single point] | – |
| Cc1ccc(NC(=O)COc2ccc(-n3cnnn3)cc2)cc1C | inactive | – |
| Cc1ccc(C(=O)N2CCN(c3ccc4c(c3)C3CC4CCN3C(=O)OCc3ccccc3)CC2)cc1 (stereo not drawn) | active: 14.6 µM | – |
| Cc1cc(C)cc(NC(=O)Nc2ccc(N3CCCCC3)cc2)c1 | inconclusive [inhibitor, single point] | – |
| COc1ccc2cc(-c3ccsc3)ncc2c1 | inconclusive [inhibitor, single point] | – |
| O=C(Nc1sc2c(c1C(=O)NCC1CCCO1)CCCC2)c1cccs1 (stereo not drawn) | inconclusive [inhibitor, single point] | – |

| SMILES | Potency | activity change, negative = growth inhibition |
| --- | --- | --- |
| CCCCCCSc1ccc(-c2nc3ccc(Cl)cn3c2NC2CCCCC2)cc1 | inconclusive [inhibitor, single point] | – |
| Oc1ccc(Br)cc1C1C=C(c2ccc3c(c2)OCO3)NC(c2ccc(Br)cc2)N1 (stereo not drawn) | active: 7.94 µM | – |
| O=C(CN1CCN(c2cccc(Cl)c2)CC1)N1CCCC1 | inactive | – |
| COc1cc(/C=C/C(=O)OCC(=O)N2CC(=O)Nc3ccccc32)ccc1O | inconclusive [inhibitor, single point] | – |
| CCC(CC)C1C(C#N)=C(N)Oc2n[nH]c(C)c21 (stereo not drawn) | active: 16.4 µM | – |
| COc1cc(NC(=O)c2ccc3c(c2)OCCO3)ccc1NC(=O)c1ccccc1Cl | inactive | – |
| COc1ccc(Cl)c(-c2cc(C(=O)Nc3ccc(F)cc3)[nH]n2)c1 | active: 23.1 µM | – |
| O=C(COC(=O)c1ccc(Br)o1)NC12CC3CC(CC(C3)C1)C2 | inactive | – |
| Cc1ccc(NC(=O)CN(C)C(=O)c2cn(Cc3ccccc3)nc2-c2cccnc2)cc1 | inconclusive [inhibitor, single point] | – |
| FCc1nc2nc(Cl)c(Cl)nc2[nH]1 | inconclusive [inhibitor, single point] | – |
| CC1CCN(CC[S-])CC1.O.O.[Cl][Pt] | active: 1.58 µM | – |
| Cc1cccc(C(=O)Nc2cc(NC(=O)c3cccs3)ccc2C)c1 | inconclusive [inhibitor, partial curve] | – |
| CCCN(CCC)CCc1cccc2c1CC(=O)N2 | inactive | – |
| CCN(CCCNC(=O)CCNC(=O)Cn1ccc2ccccc2c1=O)c1ccccc1 | inconclusive [inhibitor, single point] | – |
| COc1ccc(CNC(=O)C2Cc3ccccc3CN2C(=O)c2ccco2)cc1 (stereo not drawn) | inconclusive [inhibitor, single point] | – |
| CC1Cc2ccccc2N1C(=O)Cn1cc([N+](=O)[O-])cn1 (stereo not drawn) | inactive | – |
| CC1CN(C(NC(=O)C(C)(C)C)C(Cl)(Cl)Cl)CC(C)O1 (stereo not drawn) | inactive | – |
| CC1CCN(C(c2nnnn2CCc2ccccc2)C(C)C)CC1 (stereo not drawn) | active: 18.4 µM | – |
| Brc1ccccc1-n1nnc(-c2ccnc3ccccc23)n1 | inconclusive [inhibitor, single point] | – |
| COc1ccc(NC(=O)/C(Cl)=C(/Cl)S(=O)(=O)Cc2ccc(C)cc2)cn1 | active: 0.82 µM | – |
| CC(NC(=O)c1ccc(Cn2cc([N+](=O)[O-])cn2)cc1)c1ccccc1 (stereo not drawn) | inconclusive [inhibitor, single point] | – |
| CC1CCN(C(=O)CN2C(=O)NC3(CCC(C)CC3)C2=O)CC1 (stereo not drawn) | inactive | – |
| Cc1ccc(S(=O)(=O)NN=C2CCc3ccccc32)cc1 | inconclusive [inhibitor, single point] | – |
| CCOc1ccc(-c2nc(CSc3nnc(C)s3)cs2)cc1OC | inconclusive [inhibitor, single point] | – |
